Experimental data from the antibiotic and cytotoxicity screens of Wong et al. (2023).
Some of the results follow.

Tests used:
[1] = tested on: HSkMC (human skeletal muscle cells); experiment: cytotoxicity call (relative viability < 0.9); details: 10 µM
[2] = tested on: HepG2; experiment: cytotoxicity call (relative viability < 0.9); details: 10 µM
[3] = tested on: S. aureus RN4220; experiment: growth inhibition call (relative growth <= 0.2); details: 50 µM

SMILES	cytotoxicity call [1]	cytotoxicity call [2]	growth inhibition call [3]
C[C@@H](NC=C1C(=O)OC(C)(C)OC1=O)C(=O)O	inactive	inactive	inactive
COc1cccc(NC(=O)N2C[C@H](O)COC[C@H]3O[C@H](CC(=O)NCc4ccccc4F)CC[C@@H]32)c1	inactive	inactive	inactive
C[C@@H]1CN([C@H](C)CO)C(=O)Cc2cc(NC(=O)c3ccncc3)ccc2O[C@H]1CN(C)Cc1ccc2c(c1)OCO2	inactive	inactive	inactive
COCC#Cc1cnc2c(c1)C(=O)N([C@@H](C)CO)C[C@H](C)[C@@H](CN(C)C(=O)CN1CCOCC1)O2	inactive	inactive	inactive
C[C@@H]1CN([C@@H](C)CO)C(=O)Cc2cc(NC(=O)C3CCCCC3)ccc2O[C@@H]1CN(C)Cc1ccc(-c2ccccc2)cc1	inactive	active	inactive
C[C@@H]1CN([C@@H](C)CO)C(=O)c2cc(C#CCN(C)C)cnc2O[C@H]1CN(C)C(=O)Nc1cccc(F)c1	inactive	inactive	inactive
Cc1ccc(-c2ccc3c(c2)O[C@@H](CN(C)Cc2cncnc2)[C@@H](C)CN([C@@H](C)CO)S3(=O)=O)cc1	inactive	inactive	inactive
C[C@@H]1CN([C@@H](C)CO)C(=O)c2cc(NS(=O)(=O)c3ccccc3)ccc2O[C@@H]1CN(C)S(=O)(=O)c1cccs1	inactive	inactive	inactive
O=C(C[C@@H]1C=C[C@H](NC(=O)CN2CCOCC2)[C@H](CO)O1)NCCc1ccccc1	inactive	inactive	inactive
COc1cccc(-c2cnc3c(c2)C(=O)N([C@H](C)CO)C[C@H](C)[C@H](CN(C)S(=O)(=O)c2cccc(OC)c2)O3)c1	inactive	inactive	inactive
C[C@H]1CN([C@@H](C)CO)C(=O)Cc2cc(NS(=O)(=O)c3ccccc3)ccc2O[C@@H]1CN(C)Cc1ccc2c(c1)OCO2	inactive	inactive	inactive
C[C@H](CO)N1C[C@H](C)[C@H](CN(C)S(=O)(=O)c2cn(C)cn2)Oc2ccc(NS(=O)(=O)c3cn(C)cn3)cc2C1=O	inactive	inactive	inactive
C[C@@H]1CN([C@@H](C)CO)C(=O)c2cc(NC(=O)CCCCCC(=O)Nc3ccccc3N)ccc2O[C@@H]1CN(C)S(C)(=O)=O	inactive	inactive	inactive
CN(C)CC(=O)N[C@H]1CC[C@@H](CC(=O)O)O[C@H]1CO	inactive	inactive	inactive
COc1ccc2c3c([nH]c2c1)[C@H](CO)N(Cc1ccncc1)C[C@]13CCN(CC1)Cc1ccc(cc1)-c1ccccn1	inactive	inactive	inactive
C[C@@H]1CN([C@H](C)CO)C(=O)c2cc(NC(=O)Nc3cccc4ccccc34)ccc2O[C@@H](C)CCCCO[C@@H]1CN(C)Cc1ccc(C(=O)O)cc1	inactive	inactive	inactive
C[C@@H]1CCCCO[C@@H](CN(C)C(=O)NC2CCCCC2)[C@@H](C)CN([C@@H](C)CO)C(=O)c2cc(NC(=O)C3CCCCC3)ccc2O1	inactive	inactive	inactive
COc1ccc(S(=O)(=O)Nc2ccc3c(c2)C(=O)N([C@H](C)CO)C[C@H](C)[C@@H](CN(C)CC2CCCCC2)OCCCC[C@H](C)O3)cc1	inactive	inactive	inactive
C[C@H](CO)N1C[C@H](C)[C@H](CN(C)C(=O)Nc2ccc(F)cc2)Oc2ccc(NS(=O)(=O)c3cn(C)cn3)cc2CC1=O	inactive	inactive	inactive
CC(C)NC(=O)Nc1ccc2c(c1)C(=O)N([C@H](C)CO)C[C@@H](C)[C@H](CN(C)S(C)(=O)=O)OCCCC[C@H](C)O2	inactive	inactive	inactive
CN(C)S(=O)(=O)Nc1ccc(C(=O)O)cc1	inactive	inactive	inactive
O=C1NC(=S)N/C1=C\c1ccco1	inactive	inactive	inactive
COc1ccc(NC(=O)N(C)C[C@@H]2Oc3ccc(NC(=O)Cn4cnnn4)cc3CC(=O)N([C@H](C)CO)C[C@@H]2C)cc1	inactive	inactive	inactive
C[C@H](CO)N1C[C@H](C)[C@@H](CN(C)Cc2ccc(-c3ccccc3)cc2)Oc2c(NC(=O)C3CCCCC3)cccc2C1=O	inactive	inactive	inactive
C=CCOC(=O)[C@H]1[C@@H]2C(=O)O[C@@H](c3ccccc3)[C@@H](c3ccccc3)N2[C@@H](c2ccc(OCCOC(=O)[C@H]3C[C@H]4C(=O)N5CCC[C@H]5C(=O)N4[C@H]3c3ccc(O)cc3)cc2)[C@]12C(=O)Nc1ccccc12	inactive	inactive	inactive
